Laboratory results as given in patent US11161864B2, “Sting agonists” (Venenum Biodesign, LLC, priority 2018, dated 2021).

How the values were obtained:
[1] = target: T1, wildtype (WT) STING protein, THP1 Dual (WT) human cells (Homo sapiens (Human), UniProt Q86WV6, H232R); experiment: cell-based; settings: for EC50: Human WT Agonist EC50, 5 hrs; for Emax: THP1-Dual, 5 h, read-out: Human WT Agonist Efficacy, 5 hrs
[2] = tested on: STING pathway, RAW-Dual Reporter cell line; experiment: cells; settings: for Emax: read-out: Murine Agonist Efficacy, 5 hrs
[3] = target: T2, HAQ STING protein, THP1 Dual (HAQ) human cells (Homo sapiens (Human), UniProt Q86WV6, G230A/H232R/R293Q/R71H); settings: for EC50: read-out: Human HAQ Agonist EC50
[4] = target: T2, HAQ STING protein, THP1 Dual (HAQ) human cells; experiment: cell-based; settings: for Emax: THP1-Dual, 5 h, read-out: Human HAQ Agonist Efficacy, 5 hrs; for EC50: Human HAQ Agonist EC50, 5 hrs
[5] = target: T1, wildtype (WT) STING protein, THP1 Dual (WT) human cells
[6] = read-out: Murine Agonist EC50, 5 hrs
[7] = Mus musculus, 5 h, read-out: Murine Agonist EC50, 5 hrs

T1 sequence (Q86WV6 whole entry H232R): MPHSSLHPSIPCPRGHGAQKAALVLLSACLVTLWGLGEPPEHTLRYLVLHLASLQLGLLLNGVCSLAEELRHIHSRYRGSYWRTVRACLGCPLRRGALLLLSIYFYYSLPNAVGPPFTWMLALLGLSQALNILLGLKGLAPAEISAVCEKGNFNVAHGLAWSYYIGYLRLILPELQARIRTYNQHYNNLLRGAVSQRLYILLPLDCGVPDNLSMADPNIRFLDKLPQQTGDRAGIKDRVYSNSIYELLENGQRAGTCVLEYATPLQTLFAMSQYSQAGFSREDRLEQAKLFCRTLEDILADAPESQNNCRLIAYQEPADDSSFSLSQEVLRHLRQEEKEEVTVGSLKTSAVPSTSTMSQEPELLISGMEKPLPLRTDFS
T2 sequence (Q86WV6 whole entry R71H/G230A/H232R/R293Q): as the sequence (Q86WV6 whole entry H232R) above, with R71H, G230A, R293Q counted along it

Row | Structure (SMILES) | EC50 [1] [µM] | Emax [1] [%] | Emax ([2]; Mus musculus, 5 h) [%] | EC50 [2, 6] [µM] | Emax [4] [%] | Human WT Agonist Efficacy [5] [%] | Murine Agonist Efficacy ([2]; 5 hrs) [%] | Human HAQ Agonist Efficacy [3] [%] | other results
1 | Nc1nc2c(ncn2[C@@H]2O[C@@H]3COP(=O)(S)OCCn4c(nc5c(N)ncnc54)COP(=O)(S)O[C@@H]2[C@@H]3F)c(=O)[nH]1 (single isomer, unassigned) [Example 7C] | < 10 | > 100 | > 100 | < 10 | > 100 |  |  |  | EC50 ([3]; 5 hrs): < 10 µM
2 | Nc1nc2c(nc3n2CCOP(=O)(S)OC[C@H]2O[C@@H](n4cnc5c(N)ncnc54)[C@H](OP(=O)(S)OC3)[C@@H]2F)c(=O)[nH]1 (stereo partly drawn) [Example 23D, (1S,21R,23R,24R)-11-Amino-23-(6-amino-9H-purin-9-yl)-24-fluoro-3,18-disulfanyl-2,4,17,19,22-pentaoxa-7,10,12,14-tetraaza-3lambda5,18lambda5-diphosphatetracyclo[19.2.1.06,14.08,13]tetracosa-6,8(13),11-triene-3,9,18-trione] |  |  |  |  |  | <100 | >100 | >100 | 
3 | Nc1nc2c(ncn2[C@@H]2O[C@@H]3COP(=O)(S)OCCn4nc(-c5cncs5)nc4COP(=O)(S)O[C@@H]2[C@@H]3F)c(=O)[nH]1 (single isomer, unassigned) [Example 16D] |  |  |  | < 10 |  | <100 | >100 | >100 | 
4 | Cc1ncc2nc3n(c2n1)CCOP(=O)(S)OC[C@H]1O[C@@H](n2cnc4c(=O)[nH]c(N)nc42)[C@H](OP(=O)(S)OC3)[C@@H]1F (single isomer, unassigned) [Example 11C] |  |  |  | < 10 |  |  | >100 |  | Human WT Agonist Efficacy ([5]; 5 hrs): >100%; Human HAQ Agonist Efficacy ([3]; 5 hrs): >100%
5 | Nc1nc2c(ncn2[C@@H]2O[C@@H]3COP(=O)(S)OCCn4c(nc5cncnc54)COP(=O)(S)O[C@@H]2[C@H]3F)c(=O)[nH]1 (stereo partly drawn) [Example 25C, (1S,21R,23R,24S)-23-(2-Amino-6-oxo-6,9-dihydro-1H-purin-9-yl)-24-fluoro-3,18-disulfanyl-2,4,17,19,22-pentaoxa-7,10,12,14-tetraaza-3lambda5,18lambda5-diphosphatetracyclo[19.2.1.06,14.08,13]tetracosa-6,8,10,12-tetraene-3,18-dione] |  |  |  |  |  |  | <100 |  | Human WT Agonist Efficacy ([5]; 5 hrs): <100%; Human HAQ Agonist Efficacy ([3]; 5 hrs): >100%
6 | O=c1[nH]cnc2c1ncn2[C@@H]1O[C@@H]2COP(=O)(S)OCCn3c(nc4cncnc43)COP(=O)(S)O[C@@H]1[C@@H]2F (stereo partly drawn) [Example 21C, (1S,21R,23R,24R)-24-Fluoro-23-(6-oxo-6,9-dihydro-1H-purin-9-yl)-3,18-disulfanyl-2,4,17,19,22-pentaoxa-7,10,12,14-tetraaza-3lambda5,8lambda5-diphosphatetracyclo[19.2.1.06,14.08,13]tetracosa-6,8,10,12-tetraene-3,18-dione] |  |  |  | < 10 |  |  | >100 |  | Human WT Agonist Efficacy ([5]; 5 hrs): <100%; Human HAQ Agonist Efficacy ([3]; 5 hrs): <100%
7 | Nc1nc2c(nnn2[C@@H]2O[C@@H]3COP(=O)(S)OCCn4c(nc5cncnc54)COP(=O)(S)O[C@@H]2[C@@H]3F)c(=O)[nH]1 (single isomer, unassigned) [Example 24D] |  |  |  | < 10 |  | <100 | >100 | >100 | 
8 | N#Cc1cnc2c(c1)nc1n2CCOP(=O)(S)OC[C@H]2O[C@@H](n3cnc4c(=O)[nH]c(N)nc43)[C@H](OP(=O)(S)OC1)[C@@H]2F (single isomer, unassigned) [Example 38B] |  |  |  |  |  | <100 |  | >100 | Murine Agonist Efficacy [2]: >100%; EC50 ([2]; read-out: Murine Agonist EC50): 10 to 99.9 µM
9 | Nc1nc2c(nnn2[C@@H]2O[C@@H]3COP(=O)(S)OCCn4c(nc5cncnc54)COP(=O)(S)O[C@@H]2[C@@H]3F)c(=O)[nH]1 (single isomer, unassigned) [Example 24C] |  |  |  | < 10 |  | >100 | <100 | >100 | 
10 | N#Cc1cnc2c(c1)nc1n2CCOP(=O)(S)OC[C@H]2O[C@@H](n3cnc4c(=O)[nH]c(N)nc43)[C@H](OP(=O)(S)OC1)[C@@H]2F (single isomer, unassigned) [Example 38C] |  |  |  |  |  | >100 |  | >100 | Murine Agonist Efficacy [2]: >100%; EC50 ([2]; read-out: Murine Agonist EC50): < 10 µM
11 | CO[C@H]1[C@H]2OP(=O)(S)OCc3nc4cncnc4n3CCOP(=O)(S)OC[C@H]1O[C@H]2n1cnc2c(=O)[nH]c(N)nc21 (single isomer, unassigned) [Example 27C] | < 10 | < 100 | < 100 | < 10 | > 100 |  |  |  | EC50 ([3]; 5 hrs): < 10 µM
12 | Nc1nc2c(ncn2[C@@H]2O[C@@H]3COP(=O)(S)OCCn4c(nc5cncnc54)COP(=O)(S)O[C@@H]2C3)c(=O)[nH]1 (single isomer, unassigned) [Example 22C] |  |  |  | 10 to 99.9 |  | <100 | <100 | >100 | 
13 | Nc1nc2c(nnn2[C@@H]2O[C@@H]3COP(=O)(S)OCCn4c(nc5cncnc54)COP(=O)(S)O[C@@H]2[C@@H]3F)c(=O)[nH]1 (stereo partly drawn) [Example 24A, (1S,21R,23R,24R)-23-{5-Amino-7-oxo-3H,6H,7H-[1,2,3]triazolo[4,5-d]pyrimidin-3-yl}-24-fluoro-3,18-disulfanyl-2,4,17,19,22-pentaoxa-7,10,12,14-tetraaza-3lambda5,18lambda5-diphosphatetracyclo[19.2.1.06,14.08,13]tetracosa-6,8,10,12-tetraene-3,18-dione] |  | < 100 | < 100 |  | < 100 |  |  |  | 
14 | Nc1nc2ncn([C@@H]3O[C@@H]4COP(=O)(S)OCCn5c(nc6cc(Cl)cnc65)COP(=O)(S)O[C@@H]3[C@@H]4F)c2c(=O)[nH]1 (single isomer, unassigned) [Example 13A] | 10 to 99.9 |  |  |  |  |  |  |  | EC50 [2, 7]: < 10 µM; EC50 [4]: < 10 µM
15 | Nc1nc2c(ncn2[C@@H]2O[C@@H]3COP(=O)(O)OCCn4c(nc5cncnc54)COP(=O)(O)O[C@@H]2[C@@H]3O)c(=O)[nH]1 [Example 10, (1R,21R,23R,24R)-23-(2-Amino-6-oxo-6,9-dihydro-1H-purin-9-yl)-3,18,24-trihydroxy-2,4,17,19,22-pentaoxa-7,10,12,14-tetraaza-3lambda5,18lambda5-diphosphatetracyclo[19.2.1.06,14.08,13]tetracosa-6,8,10,12-tetraene-3,18-dione] | 100 to 999 | < 100 | > 100 |  | > 200 |  |  |  | EC50 [2, 7]: 10 to 99.9 µM; EC50 [4]: 10 to 99.9 µM
16 | Nc1nc2c(ncn2[C@@H]2O[C@@H]3COP(=O)(S)OCCn4c(nc5c(N)ncnc54)COP(=O)(S)O[C@@H]2[C@@H]3F)c(=O)[nH]1 (single isomer, unassigned) [Example 7D] | 10 to 99.9 |  |  | < 10 |  |  |  |  | EC50 ([3]; 5 hrs): < 10 µM
17 | CO[C@H]1[C@H]2OP(=O)(S)OCc3nc4cncnc4n3CCOP(=O)(S)OC[C@H]1O[C@H]2n1cnc2c(=O)[nH]c(N)nc21 (single isomer, unassigned) [Example 27D] | 10 to 99.9 |  |  | < 10 |  |  |  |  | EC50 ([3]; 5 hrs): < 10 µM
18 | Nc1nc2c(ncn2[C@@H]2O[C@@H]3COP(=O)(S)OCC(F)(F)Cn4c(nc5cncnc54)COP(=O)(S)O[C@@H]2[C@@H]3F)c(=O)[nH]1 (single isomer, unassigned) [Example 19C] |  | < 100 | < 100 | 100 to 999 | > 100 |  |  |  | 
19 | Nc1nc2ncn([C@@H]3O[C@@H]4COP(=O)(S)OCCn5c(nc6cc(Cl)cnc65)COP(=O)(S)O[C@@H]3[C@@H]4F)c2c(=O)[nH]1 (stereo partly drawn) [Example 13A, (1S,21R,23R,24R)-23-(2-Amino-6-oxo-6,7-dihydro-1H-purin-7-yl)-10-chloro-24-fluoro-3,18-disulfanyl-2,4,17,19,22-pentaoxa-7,12,14-triaza-3lambda5,18lambda5-diphosphatetracyclo[19.2.1.06,14.08,13]tetracosa-6,8,10,12-tetraene-3,18-dione] |  | < 100 | > 100 |  | > 100 |  |  |  | 
20 | Nc1nc2c(ncn2[C@@H]2O[C@@H]3COP(=O)(S)OCCn4c(nc5cncnc54)COP(=O)(S)O[C@@H]2[C@@H]3F)c(=O)[nH]1 (single isomer, unassigned) [Example 1B] |  |  |  | 10 to 99.9 |  |  | >100 |  | Human HAQ Agonist Efficacy ([3]; 5 hrs): <100%; EC50 [4]: 10 to 99.9 µM
21 | Nc1nc2c(ncn2[C@@H]2O[C@@H]3COP(=O)(S)OCCn4c(nc5c(N)ncnc54)COP(=O)(S)O[C@@H]2[C@@H]3F)c(=O)[nH]1 (single isomer, unassigned) [Example 7B] | 100 to 999 |  |  | 10 to 99.9 |  |  |  |  | EC50 ([3]; 5 hrs): < 10 µM
22 | Nc1nc2c(ncn2[C@@H]2O[C@@H]3COP(=O)(S)OCCn4c(nc5c(=O)[nH]cnc54)COP(=O)(S)O[C@@H]2[C@@H]3F)c(=O)[nH]1 (stereo partly drawn) [Example 3C, (1S,21R,23R,24R)-23-(2-Amino-6-oxo-6,9-dihydro-1H-purin-9-yl)-24-fluoro-3,18-disulfanyl-2,4,17,19,22-pentaoxa-7,10,12,14-tetraaza-3lambda5,18lambda5-diphosphatetracyclo[19.2.1.06,14.08,13]tetracosa-6,8(13),11-triene-3,9,18-trione] |  | < 100 | > 100 |  | < 100 |  |  |  | 

Like-named read-outs stand apart in the source and are kept apart here.
